Assay results as given in publication PMC4336329 (PLoS ONE, 2015).
The campaign covered roughly 310,000 compounds. About 14,000 (4.5%) showed an effect of 50% or more. The effect is printed as a negative number. This is one part of the list.

What follows are compounds tested against human ether-à-go-go-related gene (hERG) potassium channel (human, UniProt Q12809) (assay: primary screen, population patch clamp on CHO cells stably expressing hERG).
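Note: peak tail current of the secondary pulse compared with the same well before compound.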

Chain of human ether-à-go-go-related gene (hERG) potassium channel (Q12809 whole entry, looked up): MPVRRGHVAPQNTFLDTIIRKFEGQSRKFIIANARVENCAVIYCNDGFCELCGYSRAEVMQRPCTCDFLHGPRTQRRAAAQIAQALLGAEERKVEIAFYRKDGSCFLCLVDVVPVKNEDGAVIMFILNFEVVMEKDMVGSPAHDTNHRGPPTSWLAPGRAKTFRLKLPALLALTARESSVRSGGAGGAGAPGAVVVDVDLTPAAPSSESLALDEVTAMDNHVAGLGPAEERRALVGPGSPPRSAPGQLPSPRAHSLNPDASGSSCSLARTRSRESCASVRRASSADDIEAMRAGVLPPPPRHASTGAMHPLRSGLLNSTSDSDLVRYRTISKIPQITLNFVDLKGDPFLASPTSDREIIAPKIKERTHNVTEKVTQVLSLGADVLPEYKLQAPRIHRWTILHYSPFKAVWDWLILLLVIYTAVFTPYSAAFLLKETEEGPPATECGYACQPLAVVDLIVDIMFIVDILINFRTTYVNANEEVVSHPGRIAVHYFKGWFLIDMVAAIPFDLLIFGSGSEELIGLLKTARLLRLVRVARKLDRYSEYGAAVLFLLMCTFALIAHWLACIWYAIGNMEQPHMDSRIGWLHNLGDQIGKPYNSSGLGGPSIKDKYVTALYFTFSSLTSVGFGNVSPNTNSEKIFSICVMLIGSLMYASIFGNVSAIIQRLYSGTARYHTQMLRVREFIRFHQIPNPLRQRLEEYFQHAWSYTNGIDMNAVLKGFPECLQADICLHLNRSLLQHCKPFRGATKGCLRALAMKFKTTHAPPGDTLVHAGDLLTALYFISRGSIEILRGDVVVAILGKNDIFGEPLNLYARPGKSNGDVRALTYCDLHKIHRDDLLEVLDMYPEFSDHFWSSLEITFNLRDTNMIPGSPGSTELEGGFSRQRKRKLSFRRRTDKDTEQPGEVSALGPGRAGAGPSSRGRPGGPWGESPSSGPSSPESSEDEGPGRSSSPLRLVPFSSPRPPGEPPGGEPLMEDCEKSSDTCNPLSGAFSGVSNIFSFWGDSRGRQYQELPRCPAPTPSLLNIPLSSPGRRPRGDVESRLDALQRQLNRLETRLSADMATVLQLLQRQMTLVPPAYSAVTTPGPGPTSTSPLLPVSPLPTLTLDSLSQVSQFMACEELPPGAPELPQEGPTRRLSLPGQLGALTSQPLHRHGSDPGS

Structure (SMILES) | hERG current change (%, negative = inhibition) at 10uM
COc1cc([N+](=O)[O-])ccc1NC(=S)NNC(=O)c1ccc2c(c1)OCO2 | 5.52%
Nc1nc(=S)c2ncn(C3CCCC3)c2[nH]1 | 18%
CN(C)S(=O)(=O)c1ccc(NC(=O)CN2CCC(Cc3ccccc3)CC2)cc1 | -32.8%
COC(=O)C(C)Sc1nc2c(c(-c3ccc(OC)cc3)c1C#N)-c1ccccc1C2=O (stereo not drawn) | 14.3%
CCN1C(=O)[C@H]2[C@@H](c3ccc(-c4ccc(Cl)c(Cl)c4)c(OC)c3)N[C@@](C)(C(=O)OC)[C@H]2C1=O.O=C(O)C(F)(F)F | 15.7%
O=C(c1n[nH]c2ccccc12)N1CCN(c2ccc(F)cc2)CC1 | -7.98%
Cc1ccc(S(=O)(=O)Cn2nnnc2CN2CCN(C(=O)c3ccco3)CC2)cc1 | -15.8%
Cc1nn(C)cc1/C=N/NC(=O)CSc1ccccn1 | 6.54%
O=C(CCN1C(=O)c2ccc([N+](=O)[O-])cc2C1=O)Nc1ccccc1C(=O)O | 14.6%
C[C@H](NC(=O)N1C[C@H]2C[C@@H](C1)c1cccc(=O)n1C2)C(=O)Nc1cccc(F)c1 | 2.4%
COCCN(C(=S)Nc1ccc(OC)c(Cl)c1)C1CCN(C(C)C)CC1 | -35.9%
COc1ccc(N2CCN(C(=O)C3CCCN3S(=O)(=O)c3cccc4nsnc34)CC2)cc1 (stereo not drawn) | -30.6%
COc1ccc(NC(=O)C2CCN(c3ncnc4c3nc3n4CCCCC3)CC2)c(OC)c1 | -8.8%
CCOc1ccc(OCC)c(NC(=O)CN2CCN(CC(=O)NC(C)C)CC2)c1.Cl | 9.43%
Cc1c(N)cc(N)cc1C(=O)O | 8.42%
O=[N+]([O-])c1ccccc1CNCCCCO | -3.05%
CN(C)S(=O)(=O)c1ccc(Cl)c(NC(=O)CN2CCc3ccccc3C2)c1 | -12.7%
CCN(CC)S(=O)(=O)c1ccc(NC(=O)CSc2nnc(-c3ccc(F)cc3)o2)cc1 | -2.4%
Cc1cc2oc(C(=O)N(Cc3ccccc3)C3CCS(=O)(=O)C3)cc(=O)c2cc1Cl (stereo not drawn) | -14.5%
CCOc1ccccc1NC(=O)Nc1cc(C(=O)O)ccc1C | 22.1%
COc1ccc2[nH]c(C(=O)NCc3ccccc3)c(C)c2c1.Cl | 7.03%
CC(=Nc1ccccc1)C1=C(O)CC(C)(C)CC1=O | 12%
CC1CCN(C(=O)c2ccc(S(=O)(=O)Cc3cccc(F)c3)c([N+](=O)[O-])c2)CC1 | 6.75%
O=C(NC(=S)NC1CC1)c1cccnc1 | -0.582%
Cc1cc(C)nc(Nc2n[nH]c(C)n2)n1 | 16.4%
COc1ccc(Nc2ccc(N3C(=O)CC(C)C3=O)cc2[N+](=O)[O-])cc1OC (stereo not drawn) | 3.58%
COC(=O)CCCCC1SCC(NC(=O)OC)C1NC(=O)OC (stereo not drawn) | 2.09%

Structure (SMILES) | hERG current change (%, negative = inhibition) at 10uM
O=C(NCc1ccncc1)c1ccc(OCc2ccccc2)cc1 | -32%
Cc1cccc(C(C)C)c1NC(=O)c1ccc(CN(c2ccccc2)S(=O)(=O)c2ccccc2)cc1 | 7.12%
O=C(CSc1nncn1-c1ccccc1)NC1CCCC1 | -8.09%
Cc1cccc(C)c1Nc1c(-c2ccsc2)nc2ncccn12 | -16.2%
Cc1ccc(S(=O)(=O)N(C(=O)c2ccco2)c2cc3sc(=O)oc3c3ccccc23)cc1 | 8.16%
CCOC(=O)[C@H]1[C@H]2COc3ccc(C)cc3[C@@H]2N2C(=O)c3ccc(F)cc3NC(=O)[C@@]12C | -22.8%
O=C(Nc1cccc(F)c1)c1ccc(S(=O)(=O)N2CCCC2)cc1 | -23.5%
CC(NC(=O)c1cc(=O)[nH]c2ccccc12)c1ccc(F)cc1F (stereo not drawn) | 18.9%
Cc1noc(C)c1S(=O)(=O)Nc1ccc(C(=O)N2CCN(c3ccc(F)cc3)CC2)cc1 | 6.88%
CNS(=O)(=O)c1ccc(CCC(=O)N2CCN(c3ccccc3OC)CC2)cc1 | -5.03%
Cn1c(=O)[nH]c(=O)c2cc(C(=O)c3cc(F)ccc3O)cnc21 | 8.74%
COc1ccccc1CCNC(=O)c1ccc(NC(=O)CC2SC(N3CCCC3)=NC2=O)cc1 (stereo not drawn) | 13.8%
COc1ccc(C2C(C(C)=O)=C(O)C(=O)N2c2cccnc2)c(OC)c1 (stereo not drawn) | 4.39%
O=C(Cc1ccccc1)Nc1c(C(=O)N2CCCCCC2)cnn1-c1ccccc1 | 12.7%
C=CCNc1cccc(Br)c1 | 6.85%
CCOC(=O)c1nn(-c2ccc(OCC)cc2)c2nc(CC(C)C)c(C#N)c(=O)n12 | 1.4%
Fc1ccccc1Nc1nc(NCc2ccco2)nc(N2CCOCC2)n1 | -15.8%
Cc1cccnc1NC1CCCCC1 | 26.3%
O=C(O)c1ccc(N2C(=O)CC(N3CCN(c4ccc(Cl)cc4)CC3)C2=O)cc1 (stereo not drawn) | 6.79%
CCc1ccc(Nc2n[n+](-c3ccccc3)c(-c3ccc(OCc4ccccc4)cc3)s2)cc1.[Cl-] | -45.2%
Cc1ccc2cc(C)c3nnc(SCC(=O)N4CCCc5ccccc54)n3c2c1C | -22.5%
CC(C)CC(=O)Nc1ccc(C(=O)COC(=O)C2CCC2)cc1 | 16.5%
Cc1cnc(NC(=O)CSc2nc3ccccc3s2)s1 | -19.3%
O=C(CCl)c1cc2c3c(c1)CC(=O)N3CCC2 | 8.17%
Cc1cc(=O)n2[nH]c(SCc3ccccc3Cl)nc2n1 | 13%
COC(=O)C1=C(c2ccc(C(C)=O)cc2)C[C@@H]2CC[C@H]1N2C(=O)NC1Cc2ccccc2C1 | -47.7%
CCCOC(=O)c1ccc(NC(=O)Oc2ccccc2)cc1 | 3.21%
